Experimental data from PubChem BioAssay AID686978 (National Center for Advancing Translational Sciences (NCATS), 2013).
Hit rate of the full screen: of about 420,000 compounds, about 64,000 (15%) were called active. The inconclusive results got no clear call from the source; some entries with a clear call stand among them for comparison. Calls follow the shape of the dose curve; as a rule, active = well fitted inhibition curve with a large enough effect; inconclusive = small, poorly fitted or top-dose-only effect; inactive = flat fitted curve, though single readings scatter. No potency is given beside an inconclusive call; the fits are too rough.

Assay: qHTS for Inhibitors of human tyrosyl-DNA phosphodiesterase 1 (TDP1): qHTS in cells in absence of CPT; also: nearly all actives have a fitted effect of over 55% in size
Conditions: DT40 Tdp1-/- hTDP1 cells, no CPT, ATP luminescence, 48 h; activity change, negative = growth inhibition: at 46.2 µM (top of the series) unless noted
Method in brief: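 Growth kinetics read by CellTiter-Glo luminescence after ≥48 hr at 37 °C. Cells: DT40 Tdp1-/- stably carrying human TDP1, 400 per well, compound exposure in the absence of CPT (DMSO vehicle).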
% is scaled to controls: 0 for no effect and ±100 for the full control effect; potency is read from the fitted curve at half-maximal effect; tags tell the direction and shape of the fitted curve.

| SMILES | activity change, negative = growth inhibition | Potency |
| --- | --- | --- |
| O=C(NCCCO)C(=O)NCC(c1ccc2c(c1)OCO2)N1CCOCC1 (stereo not given) | inactive: -1.43% |  |
| O=C(CN1C(=O)c2ccccc2C1=O)NCc1ccc(F)cc1 |  | inconclusive [inhibitor, single point] |
| COC(=O)c1ccc(NC(=O)COc2cccc3c2OC(C)(C)C3)cc1 |  | inconclusive [inhibitor, partial curve] |
| CCOc1ccc(OCC)c(NS(=O)(=O)c2c(C(=O)N3CCCCCC3)c(C)n(C)c2C)c1 |  | inconclusive [inhibitor, single point] |
| O=C(CSc1nnc(-c2ccccc2)c(-c2ccccc2)n1)NC1CCCC1 |  | inconclusive [inhibitor, single point] |
| O=C(O)C1CCCCC1C(=O)Nc1cccc(Br)c1 (stereo not given) | inactive: -11.8% |  |
| COc1ccc(C2=NS(=O)(=O)N(C)C(C(=O)N3C(C)CCCC3C)=C2)cc1 (stereo not given) |  | inconclusive [inhibitor, single point] |
| O=C(NCc1ccc2c(c1)OCO2)C1CCN(Cc2cnn(-c3ccccc3)c2-n2cccc2)CC1 | inactive: -25.8% |  |
| c1ccc(Cc2nn3c(C4COc5ccccc5O4)nnc3s2)cc1 (stereo not given) |  | inconclusive [inhibitor, single point] |
| Cc1cccc(NS(=O)(=O)c2cccc(C(=O)NCC3(N4CCOCC4)CCCCC3)c2)c1 |  | inconclusive [inhibitor, single point] |
| O=C(/C=C/c1ccc2c(c1)OCO2)Nc1nc2ccc(F)cc2s1 | inactive: -56.3% |  |
| Cc1ccc(C)c(OCc2cc(C(=O)NC3CCOC(C)(C)C3)no2)c1 (stereo not given) | inactive: -7.58% |  |
| C=CCN1C(=O)c2ccc(C(=O)N3CCC(C(N)=O)CC3)cc2C1=O | inactive: 3.51% |  |
| COc1ccc(C2c3c(oc4ccc(C)cc4c3=O)C(=O)N2CCCN2CCOCC2)cc1OC (stereo not given) |  | inconclusive [inhibitor, single point] |
| COc1ccc(C(=O)OCC(=O)NCC2CCCO2)cc1S(=O)(=O)N1CCCc2ccccc21 (stereo not given) |  | inconclusive [inhibitor, single point] |
| O=S(=O)(Nc1ccc(Br)cn1)c1ccc(Cl)s1 | inactive: 20.4% |  |
| Cc1cc(C)n2nc(SCC(=O)N(C)C)nc2n1 | inactive: -1.49% |  |
| COc1cccc(N2CCN(C(=O)CN(c3cc(C)cc(C)c3)S(=O)(=O)c3c(C)noc3C)CC2)c1 |  | inconclusive [inhibitor, single point] |
| Fc1ccc(-n2cc(-c3ccccc3)c3c(NCCc4ccccc4)ncnc32)cc1 |  | inconclusive [inhibitor, single point] |
| CCc1nc2c(OCc3cc(Cl)cc(Cl)c3)cccn2c1N(C=O)Cc1ccccc1 |  | inconclusive [inhibitor, single point] |
